# Results as given in the supplement of paper PMC8728848.
# Some of the results follow.
# What was measured:
# Assay in all cases: glycan array binding signal (z-score within array); higher = stronger binding
# Conditions in all cases: glycan notation: IUPAC condensed, linker removed
# [1] = biological target: GlcNAc(b1-3)Gal(b1-4)GlcNAc(b1-3)Gal(b1-4)GlcNAc(b1-3)Gal(b1-4)GlcNAc(b1-3)Gal(b1-4)GlcNAc(b1-2)[GlcNAc(b1-3)Gal(b1-4)GlcNAc(b1-3)Gal(b1-4)GlcNAc(b1-3)Gal(b1-4)GlcNAc(b1-3)Gal(b1-4)GlcNAc(b1-6)]Man(a1-6)[GlcNAc(b1-3)Gal(b1-4)GlcNAc(b1-3)Gal(b1-4)GlcNAc(b1-3)Gal(b1-4)GlcNAc(b1-3)Gal(b1-4)GlcNAc(b1-2)Man(a1-3)]Man(b1-4)GlcNAc(b1-4)[Fuc(a1-6)]GlcNAc
# In short: (§1)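 The binding signal is a Z-score computed within each array. Data were drawn from 3228 arrays in the Consortium for Functional Glycomics database, restricted to those with a known protein sequence. Scores were averaged over arrays of the same protein sequence at different concentrations or buffers, and over linkers, and negative values can be taken as non-binding.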
# [2] = biological target: GlcNAc(b1-3)Gal(b1-4)GlcNAc(b1-3)Gal(b1-4)GlcNAc(b1-3)GalNAc
# In short: as §1
# [3] = biological target: GlcNAc(b1-3)Gal(b1-4)GlcNAc(b1-3)GalNAc
# In short: as §1
# [4] = biological target: GlcNAc(b1-3)Gal(b1-4)GlcNAc(b1-3)[GlcNAc(b1-3)Gal(b1-4)GlcNAc(b1-3)]GalNAc
# In short: as §1
# [5] = biological target: GlcNAc(b1-3)Gal(b1-4)GlcNAc(b1-6)[Gal(b1-3)]GalNAc
# In short: as §1
# [6] = biological target: GlcNAc(b1-3)Gal(b1-4)GlcNAc(b1-6)[GlcNAc(b1-3)Gal(b1-3)]GalNAc
# In short: as §1
# [7] = biological target: GlcNAc(b1-3)Gal(b1-4)GlcNAc(b1-6)[GlcNAc(b1-3)]Gal(b1-4)GlcNAc
# In short: as §1
# GlcNAc(b1-3)GalNAc = biological target: GlcNAc(b1-3)GalNAc
# In short: as §1
# GlcNAc(b1-3)Man = biological target: GlcNAc(b1-3)Man
# In short: as §1
# [8] = biological target: GlcNAc(b1-3)[GlcNAc(b1-4)][GlcNAc(b1-6)]GlcNAc
# In short: as §1
# [9] = biological target: GlcNAc(b1-3)[GlcNAc(b1-6)]Gal(b1-4)GlcNAc
# In short: as §1
# [10] = biological target: GlcNAc(b1-3)[GlcNAc(b1-6)]GalNAc
# In short: as §1
# [11] = biological target: GlcNAc(b1-4)Gal(b1-4)GlcNAc
# In short: as §1
# GlcNAc(b1-4)GlcNAc = biological target: GlcNAc(b1-4)GlcNAc
# In short: as §1
# [12] = biological target: GlcNAc(b1-4)GlcNAc(b1-4)GlcNAc
# In short: as §1
# [13] = biological target: GlcNAc(b1-4)GlcNAc(b1-4)GlcNAc(b1-4)GlcNAc(b1-4)GlcNAc
# In short: as §1
# [14] = biological target: GlcNAc(b1-4)GlcNAc(b1-4)GlcNAc(b1-4)GlcNAc(b1-4)GlcNAc(b1-4)GlcNAc
# In short: as §1
# [15] = biological target: GlcNAc(b1-4)[GlcNAc(b1-6)]GalNAc
# In short: as §1
# [16] = biological target: GlcNAc(b1-6)Gal(b1-4)GlcNAc
# In short: as §1
# GlcNAc(b1-6)GalNAc = biological target: GlcNAc(b1-6)GalNAc
# In short: as §1
# [17] = biological target: GlcNAc6S(b1-3)Gal(b1-4)GlcNAc
# In short: as §1
# Kdn(a2-3)Gal(b1-3)GalNAc = biological target: Kdn(a2-3)Gal(b1-3)GalNAc
# In short: as §1
# Kdn(a2-3)Gal(b1-3)GlcNAc = biological target: Kdn(a2-3)Gal(b1-3)GlcNAc
# In short: as §1
# Kdn(a2-3)Gal(b1-4)Glc = biological target: Kdn(a2-3)Gal(b1-4)Glc
# In short: as §1
# Kdn(a2-3)Gal(b1-4)GlcNAc = biological target: Kdn(a2-3)Gal(b1-4)GlcNAc
# In short: as §1
# [18] = biological target: Kdn(a2-3)Gal(b1-4)[Fuc(a1-3)]GlcNAc
# In short: as §1
# Kdn(a2-6)Gal(b1-4)GlcNAc = biological target: Kdn(a2-6)Gal(b1-4)GlcNAc
# In short: as §1
# [19] = biological target: Man(a1-2)Man(a1-2)Man(a1-3)Man
# In short: as §1
# [20] = biological target: Man(a1-2)Man(a1-2)Man(a1-6)[Man(a1-3)]Man
# In short: as §1
# Man(a1-2)Man(a1-3)Man = biological target: Man(a1-2)Man(a1-3)Man
# In short: as §1
# [21] = biological target: Man(a1-2)Man(a1-3)[Man(a1-2)Man(a1-6)]Man
# In short: as §1
# [22] = biological target: Man(a1-2)Man(a1-3)[Man(a1-2)Man(a1-6)]Man(a1-6)[Man(a1-2)Man(a1-2)Man(a1-3)]Man
# In short: as §1
# [23] = biological target: Man(a1-2)Man(a1-3)[Man(a1-2)Man(a1-6)]Man(a1-6)[Man(a1-2)Man(a1-2)Man(a1-3)]Man(b1-4)GlcNAc(b1-4)GlcNAc
# In short: as §1
# [24] = biological target: Man(a1-2)Man(a1-3)[Man(a1-6)]Man(a1-6)[Man(a1-2)Man(a1-3)]Man(b1-4)GlcNAc(b1-4)GlcNAc
# In short: as §1
# [25] = biological target: Man(a1-2)Man(a1-6)[Man(a1-3)]Man(a1-6)[Man(a1-2)Man(a1-2)Man(a1-3)]Man
# In short: as §1
# [26] = biological target: Man(a1-2)Man(a1-6)[Man(a1-3)]Man(a1-6)[Man(a1-2)Man(a1-2)Man(a1-3)]Man(b1-4)GlcNAc(b1-4)GlcNAc
# In short: as §1
# Man(a1-3)[Man(a1-6)]Man = biological target: Man(a1-3)[Man(a1-6)]Man
# In short: as §1
# [27] = biological target: Man(a1-3)[Man(a1-6)]Man(a1-6)[Man(a1-2)Man(a1-3)]Man(b1-4)GlcNAc(b1-4)GlcNAc
# In short: as §1
# [28] = biological target: Man(a1-3)[Man(a1-6)]Man(a1-6)[Man(a1-3)]Man
# In short: as §1
# [29] = biological target: Man(a1-3)[Man(a1-6)]Man(a1-6)[Man(a1-3)]Man(b1-4)GlcNAc(b1-4)GlcNAc
# In short: as §1
# [30] = biological target: Man(a1-3)[Man(a1-6)]Man(b1-4)GlcNAc(b1-4)GlcNAc
# In short: as §1
# [31] = biological target: Man(a1-3)[Man(a1-6)]Man(b1-4)GlcNAc(b1-4)[Fuc(a1-6)]GlcNAc
# In short: as §1
# Man(a1-6)Man = biological target: Man(a1-6)Man
# In short: as §1
# Man(b1-4)GlcNAc = biological target: Man(b1-4)GlcNAc
# In short: as §1
# MurNAc(b1-4)GlcNAc = biological target: MurNAc(b1-4)GlcNAc
# In short: as §1
binder,measurement,setting,value
Threefoil (Haloarcula marismortui) (protein) GSSHHHHHHHHHHSSGLVPRGSHMGDGYYKLVARHSGKALDVENASTSDGANVIQYSYSGGDNQQWRLVDLGDGYYKLVARHSGKALDVENASTSDGANVIQYSYSGGDNQQWRLVDLGDGYYKLVARHSGKALDVENASTSDGANVIQYSYSGGDNQQWRLVDL,glycan array binding signal (z-score),[1],-0.088
same,glycan array binding signal (z-score),[2],-0.318
same,glycan array binding signal (z-score),[3],-0.264
same,glycan array binding signal (z-score),[4],-0.212
same,glycan array binding signal (z-score),[5],-0.241
same,glycan array binding signal (z-score),[6],-0.117
same,glycan array binding signal (z-score),[7],-0.237
same,glycan array binding signal (z-score),GlcNAc(b1-3)GalNAc,-0.111
same,glycan array binding signal (z-score),GlcNAc(b1-3)Man,-0.087
same,glycan array binding signal (z-score),[8],-0.145
same,glycan array binding signal (z-score),[9],-0.224
same,glycan array binding signal (z-score),[10],-0.164
same,glycan array binding signal (z-score),[11],-0.301
same,glycan array binding signal (z-score),GlcNAc(b1-4)GlcNAc,-0.198
same,glycan array binding signal (z-score),[12],-0.199
same,glycan array binding signal (z-score),[13],-0.318
same,glycan array binding signal (z-score),[14],-0.198
same,glycan array binding signal (z-score),[15],-0.301
same,glycan array binding signal (z-score),[16],0.035
same,glycan array binding signal (z-score),GlcNAc(b1-6)GalNAc,-0.181
same,glycan array binding signal (z-score),[17],0.091
same,glycan array binding signal (z-score),Kdn(a2-3)Gal(b1-3)GalNAc,-0.172
same,glycan array binding signal (z-score),Kdn(a2-3)Gal(b1-3)GlcNAc,-0.168
same,glycan array binding signal (z-score),Kdn(a2-3)Gal(b1-4)Glc,0.03
same,glycan array binding signal (z-score),Kdn(a2-3)Gal(b1-4)GlcNAc,-0.158
same,glycan array binding signal (z-score),[18],-0.156
same,glycan array binding signal (z-score),Kdn(a2-6)Gal(b1-4)GlcNAc,-0.172
same,glycan array binding signal (z-score),[19],-0.259
same,glycan array binding signal (z-score),[20],-0.271
same,glycan array binding signal (z-score),Man(a1-2)Man(a1-3)Man,-0.174
same,glycan array binding signal (z-score),[21],-0.247
same,glycan array binding signal (z-score),[22],-0.023
same,glycan array binding signal (z-score),[23],-0.334
same,glycan array binding signal (z-score),[24],-0.319
same,glycan array binding signal (z-score),[25],-0.187
same,glycan array binding signal (z-score),[26],-0.207
same,glycan array binding signal (z-score),Man(a1-3)[Man(a1-6)]Man,-0.329
same,glycan array binding signal (z-score),[27],-0.166
same,glycan array binding signal (z-score),[28],-0.234
same,glycan array binding signal (z-score),[29],-0.144
same,glycan array binding signal (z-score),[30],-0.238
same,glycan array binding signal (z-score),[31],-0.198
same,glycan array binding signal (z-score),Man(a1-6)Man,-0.242
same,glycan array binding signal (z-score),Man(b1-4)GlcNAc,0.763
same,glycan array binding signal (z-score),MurNAc(b1-4)GlcNAc,-0.047
